# In the supplement of paper PMC8728848:
# The list shows a part of the results.
# What was measured:
# Assay in all cases: glycan array binding signal (z-score within array); higher = stronger binding
# Details in all cases: glycan notation: IUPAC condensed, linker removed; mutation: I144G
# GalNAc(b1-4)GlcNAc = target: GalNAc(b1-4)GlcNAc
# How it was run: (§1)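 The binding signal is a Z-score computed within each array and averaged over linkers. Arrays of the same protein sequence at different concentrations or buffers were also averaged together. Data originate from 3228 arrays in the Consortium for Functional Glycomics database, kept only where the protein sequence was available.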
# [1] = target: GalNAc(b1-4)GlcNAc(b1-2)Man
# How it was run: as §1
# [2] = target: GalNAc(b1-4)GlcNAc(b1-2)Man(a1-3)[GalNAc(b1-4)GlcNAc(b1-2)Man(a1-6)]Man(b1-4)GlcNAc(b1-4)GlcNAc
# How it was run: as §1
# [3] = target: GalNAc(b1-4)GlcNAc(b1-3)GalNAc(b1-4)GlcNAc
# How it was run: as §1
# GalNAc(b1-4)GlcNAc6S = target: GalNAc(b1-4)GlcNAc6S
# How it was run: as §1
# GalNAc(b1-6)GalNAc = target: GalNAc(b1-6)GalNAc
# How it was run: as §1
# GalNAc3S(b1-4)GlcNAc = target: GalNAc3S(b1-4)GlcNAc
# How it was run: as §1
# GalNAc3S(b1-4)GlcNAc3S = target: GalNAc3S(b1-4)GlcNAc3S
# How it was run: as §1
# [4] = target: GalNAc3S(b1-4)[Fuc(a1-3)]GlcNAc
# How it was run: as §1
# GalNAc4S6S(b1-4)GlcNAc = target: GalNAc4S6S(b1-4)GlcNAc
# How it was run: as §1
# GalNAc6S(b1-4)GlcNAc = target: GalNAc6S(b1-4)GlcNAc
# How it was run: as §1
# Glc(a1-4)Glc = target: Glc(a1-4)Glc
# How it was run: as §1
# [5] = target: Glc(a1-4)Glc(a1-4)Glc(a1-4)Glc
# How it was run: as §1
# Glc(a1-6)Glc(a1-6)Glc = target: Glc(a1-6)Glc(a1-6)Glc
# How it was run: as §1
# [6] = target: Glc(a1-6)Glc(a1-6)Glc(a1-6)Glc
# How it was run: as §1
# Glc(b1-4)Glc = target: Glc(b1-4)Glc
# How it was run: as §1
# Glc(b1-6)Glc = target: Glc(b1-6)Glc
# How it was run: as §1
# GlcA(b1-3)Gal = target: GlcA(b1-3)Gal
# How it was run: as §1
# GlcA(b1-3)GlcNAc = target: GlcA(b1-3)GlcNAc
# How it was run: as §1
# GlcA(b1-6)Gal = target: GlcA(b1-6)Gal
# How it was run: as §1
# [7] = target: GlcA3S(b1-3)Gal(b1-4)GlcNAc(b1-2)Man
# How it was run: as §1
# [8] = target: GlcA3S(b1-3)Gal(b1-4)GlcNAc(b1-3)Gal(b1-4)Glc
# How it was run: as §1
# [9] = target: GlcNAc(a1-3)Gal(b1-4)GlcNAc
# How it was run: as §1
# [10] = target: GlcNAc(a1-4)Gal(b1-3)GlcNAc
# How it was run: as §1
# [11] = target: GlcNAc(a1-4)Gal(b1-4)GalNAc
# How it was run: as §1
# [12] = target: GlcNAc(a1-4)Gal(b1-4)GlcNAc
# How it was run: as §1
# [13] = target: GlcNAc(a1-4)Gal(b1-4)GlcNAc(b1-3)Gal(b1-4)Glc
# How it was run: as §1
# [14] = target: GlcNAc(a1-4)Gal(b1-4)GlcNAc(b1-3)Gal(b1-4)GlcNAc
# How it was run: as §1
# [15] = target: GlcNAc(a1-4)Gal(b1-4)GlcNAc(b1-3)Gal(b1-4)GlcNAc(b1-3)Gal(b1-4)GlcNAc
# How it was run: as §1
# [16] = target: GlcNAc(a1-4)Gal(b1-4)GlcNAc(b1-3)Gal(b1-4)[Fuc(a1-3)]GlcNAc(b1-3)Gal(b1-4)[Fuc(a1-3)]GlcNAc
# How it was run: as §1
# [17] = target: GlcNAc(a1-6)Gal(b1-4)GlcNAc
# How it was run: as §1
# [18] = target: GlcNAc(b1-2)Gal(b1-3)GalNAc
# How it was run: as §1
# [19] = target: GlcNAc(b1-2)Man(a1-3)[GlcNAc(b1-2)Man(a1-6)]Man(b1-4)GlcNAc(b1-4)GlcNAc
# How it was run: as §1
# [20] = target: GlcNAc(b1-2)Man(a1-3)[GlcNAc(b1-2)Man(a1-6)]Man(b1-4)GlcNAc(b1-4)[Fuc(a1-6)]GlcNAc
# How it was run: as §1
# [21] = target: GlcNAc(b1-2)Man(a1-3)[GlcNAc(b1-4)][GlcNAc(b1-2)Man(a1-6)]Man(b1-4)GlcNAc(b1-4)GlcNAc
# How it was run: as §1
# [22] = target: GlcNAc(b1-2)Man(a1-3)[GlcNAc(b1-4)][GlcNAc(b1-2)Man(a1-6)]Man(b1-4)GlcNAc(b1-4)[Fuc(a1-6)]GlcNAc
# How it was run: as §1
# [23] = target: GlcNAc(b1-2)[GlcNAc(b1-4)]Man(a1-3)[GlcNAc(b1-2)Man(a1-6)]Man(b1-4)GlcNAc(b1-4)GlcNAc
# How it was run: as §1
# [24] = target: GlcNAc(b1-2)[GlcNAc(b1-4)]Man(a1-3)[GlcNAc(b1-4)][GlcNAc(b1-2)Man(a1-6)]Man(b1-4)GlcNAc(b1-4)GlcNAc
# How it was run: as §1
# [25] = target: GlcNAc(b1-2)[GlcNAc(b1-4)]Man(a1-3)[GlcNAc(b1-4)][GlcNAc(b1-2)[GlcNAc(b1-6)]Man(a1-6)]Man(b1-4)GlcNAc(b1-4)GlcNAc
# How it was run: as §1
# [26] = target: GlcNAc(b1-2)[GlcNAc(b1-4)]Man(a1-3)[GlcNAc(b1-4)][GlcNAc(b1-2)[GlcNAc(b1-6)]Man(a1-6)]Man(b1-4)GlcNAc(b1-4)[Fuc(a1-6)]GlcNAc
# How it was run: as §1
# [27] = target: GlcNAc(b1-2)[GlcNAc(b1-6)]Man(a1-6)[GlcNAc(b1-2)Man(a1-3)]Man(b1-4)GlcNAc(b1-4)GlcNAc
# How it was run: as §1
# [28] = target: GlcNAc(b1-2)[GlcNAc(b1-6)]Man(a1-6)[GlcNAc(b1-2)Man(a1-3)]Man(b1-4)GlcNAc(b1-4)[Fuc(a1-6)]GlcNAc
# How it was run: as §1
# [29] = target: GlcNAc(b1-2)[GlcNAc(b1-6)]Man(a1-6)[GlcNAc(b1-4)][GlcNAc(b1-2)Man(a1-3)]Man(b1-4)GlcNAc(b1-4)GlcNAc
# How it was run: as §1
# GlcNAc(b1-3)Fuc = target: GlcNAc(b1-3)Fuc
# How it was run: as §1
# GlcNAc(b1-3)Gal = target: GlcNAc(b1-3)Gal
# How it was run: as §1
binder,measurement,setting,value
"rAAL-I144G (Agrocybe aegerita), Q6WY08 (protein) MQGVNIYNISAGTSVDLAAPVTTGDIVTFFSSALNLNAGAGNPNNTTLNLFAENGAYLLHIAFRLQENVIIFNSRQPDGPWLVEQRVSDVANQFAGIDGKAMVTVFDHGDKYQVVINEKTVIQYTKQISGLTLSLSYNATEETSGFSTVVEAVTYTGLALEHHHHHH",glycan array binding signal (z-score),GalNAc(b1-4)GlcNAc,-0.124
same,glycan array binding signal (z-score),[1],-0.211
same,glycan array binding signal (z-score),[2],-0.132
same,glycan array binding signal (z-score),[3],-0.14
same,glycan array binding signal (z-score),GalNAc(b1-4)GlcNAc6S,-0.1
same,glycan array binding signal (z-score),GalNAc(b1-6)GalNAc,-0.181
same,glycan array binding signal (z-score),GalNAc3S(b1-4)GlcNAc,-0.159
same,glycan array binding signal (z-score),GalNAc3S(b1-4)GlcNAc3S,-0.037
same,glycan array binding signal (z-score),[4],-0.182
same,glycan array binding signal (z-score),GalNAc4S6S(b1-4)GlcNAc,-0.051
same,glycan array binding signal (z-score),GalNAc6S(b1-4)GlcNAc,-0.033
same,glycan array binding signal (z-score),Glc(a1-4)Glc,-0.109
same,glycan array binding signal (z-score),[5],-0.031
same,glycan array binding signal (z-score),Glc(a1-6)Glc(a1-6)Glc,-0.103
same,glycan array binding signal (z-score),[6],-0.13
same,glycan array binding signal (z-score),Glc(b1-4)Glc,-0.143
same,glycan array binding signal (z-score),Glc(b1-6)Glc,-0.183
same,glycan array binding signal (z-score),GlcA(b1-3)Gal,-0.104
same,glycan array binding signal (z-score),GlcA(b1-3)GlcNAc,-0.117
same,glycan array binding signal (z-score),GlcA(b1-6)Gal,-0.173
same,glycan array binding signal (z-score),[7],11.8
same,glycan array binding signal (z-score),[8],9.46
same,glycan array binding signal (z-score),[9],-0.063
same,glycan array binding signal (z-score),[10],-0.157
same,glycan array binding signal (z-score),[11],-0.147
same,glycan array binding signal (z-score),[12],-0.123
same,glycan array binding signal (z-score),[13],-0.082
same,glycan array binding signal (z-score),[14],-0.061
same,glycan array binding signal (z-score),[15],-0.204
same,glycan array binding signal (z-score),[16],-0.118
same,glycan array binding signal (z-score),[17],-0.19
same,glycan array binding signal (z-score),[18],-0.178
same,glycan array binding signal (z-score),[19],-0.093
same,glycan array binding signal (z-score),[20],-0.062
same,glycan array binding signal (z-score),[21],-0.176
same,glycan array binding signal (z-score),[22],-0.15
same,glycan array binding signal (z-score),[23],-0.124
same,glycan array binding signal (z-score),[24],-0.038
same,glycan array binding signal (z-score),[25],-0.163
same,glycan array binding signal (z-score),[26],-0.103
same,glycan array binding signal (z-score),[27],-0.095
same,glycan array binding signal (z-score),[28],-0.035
same,glycan array binding signal (z-score),[29],-0.2
same,glycan array binding signal (z-score),GlcNAc(b1-3)Fuc,-0.027
same,glycan array binding signal (z-score),GlcNAc(b1-3)Gal,-0.162
